Assay results: PubChem BioAssay AID1347165 (National Center for Advancing Translational Sciences (NCATS), 2019)
Screen size: about 220,000 compounds; about 5,700 (2.6%) were called active. This list was built around the results that the source calls inconclusive (neither active nor inactive); the mix of calls is not that of the screen. Calls come from the whole dose curve; as a rule, active = well fitted inhibition curve with a large enough effect; inconclusive = small, poorly fitted or top-dose-only effect; inactive = no such curve, though single readings can be large or run the other way. Potencies beside an inconclusive call are fits to weak or partial responses and may not hold up.
Note: nearly all actives have a fitted effect of over 70% in size.
Potency is the fitted concentration of half-maximal effect; tags give direction and shape of the fitted curve.
Throughout, for activity change, negative = inhibition: 0% is about no effect.

The compounds below were run against Lysine-specific demethylase 5B (Homo sapiens) (UniProt Q9UGL1) (assay: Primary screen for KDM5B Histone Demethylases FDH-coupled qHTS). Details: FDH-coupled NADH fluorescence (FDH is formaldehyde dehydrogenase); activity change, negative = inhibition: at 57.7 µM (top of the series) unless noted.
Sequence of UniProt Q9UGL1 (Q9UGL1 whole entry, looked up): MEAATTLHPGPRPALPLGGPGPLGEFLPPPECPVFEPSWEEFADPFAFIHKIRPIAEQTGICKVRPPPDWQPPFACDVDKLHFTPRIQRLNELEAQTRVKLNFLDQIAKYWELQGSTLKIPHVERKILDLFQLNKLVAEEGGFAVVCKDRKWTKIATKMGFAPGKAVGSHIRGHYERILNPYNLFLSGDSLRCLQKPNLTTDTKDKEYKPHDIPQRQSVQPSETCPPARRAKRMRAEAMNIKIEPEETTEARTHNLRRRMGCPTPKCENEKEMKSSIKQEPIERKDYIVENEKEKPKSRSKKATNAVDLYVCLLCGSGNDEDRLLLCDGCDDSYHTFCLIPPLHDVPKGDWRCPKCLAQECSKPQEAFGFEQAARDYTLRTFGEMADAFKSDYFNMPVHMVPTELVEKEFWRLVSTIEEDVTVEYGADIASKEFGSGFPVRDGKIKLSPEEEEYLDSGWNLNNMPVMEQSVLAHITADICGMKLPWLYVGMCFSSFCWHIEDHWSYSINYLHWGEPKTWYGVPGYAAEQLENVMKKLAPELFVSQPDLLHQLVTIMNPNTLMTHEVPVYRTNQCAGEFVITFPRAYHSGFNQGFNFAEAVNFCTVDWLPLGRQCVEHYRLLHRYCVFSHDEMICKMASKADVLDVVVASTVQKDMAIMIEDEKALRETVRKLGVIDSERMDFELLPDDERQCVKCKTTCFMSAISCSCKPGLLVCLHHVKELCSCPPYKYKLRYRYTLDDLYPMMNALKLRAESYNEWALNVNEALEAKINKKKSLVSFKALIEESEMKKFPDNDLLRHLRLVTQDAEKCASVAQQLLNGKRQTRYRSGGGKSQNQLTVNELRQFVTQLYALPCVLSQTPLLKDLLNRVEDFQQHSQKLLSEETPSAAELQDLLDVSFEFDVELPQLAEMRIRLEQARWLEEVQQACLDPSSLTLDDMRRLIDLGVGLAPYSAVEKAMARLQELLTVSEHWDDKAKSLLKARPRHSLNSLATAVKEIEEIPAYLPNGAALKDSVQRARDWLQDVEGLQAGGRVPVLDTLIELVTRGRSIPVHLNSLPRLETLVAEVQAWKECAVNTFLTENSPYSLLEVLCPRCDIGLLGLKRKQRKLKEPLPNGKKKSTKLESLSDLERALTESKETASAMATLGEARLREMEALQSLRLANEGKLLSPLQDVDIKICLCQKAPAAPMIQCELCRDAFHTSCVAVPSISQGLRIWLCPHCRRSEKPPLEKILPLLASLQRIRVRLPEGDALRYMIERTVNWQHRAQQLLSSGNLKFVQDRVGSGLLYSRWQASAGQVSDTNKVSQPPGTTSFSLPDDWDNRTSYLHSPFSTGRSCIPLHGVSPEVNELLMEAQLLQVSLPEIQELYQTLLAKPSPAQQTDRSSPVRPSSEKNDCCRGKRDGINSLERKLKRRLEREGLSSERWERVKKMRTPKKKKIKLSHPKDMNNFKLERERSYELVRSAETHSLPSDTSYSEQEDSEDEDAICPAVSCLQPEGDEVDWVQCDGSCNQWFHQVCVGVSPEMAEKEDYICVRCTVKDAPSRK
Summary of the method: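 Here, H3K4me3 peptide (12.5 µM in substrate mix) is demethylated by KDM5BΔAP, 200 nM final, after 10 min compound exposure. Formaldehyde product is coupled through FDH (0.25 U/mL in mix) to NADH fluorescence; 30-min ΔRFU feeds dose-response curves.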
For `CCc1cccc2c(C(CC(=O)NCc3ccco3)c3ccc(OC)c(OC)c3)c[nH]c12` (stereo not given), the Potency was inconclusive: 31.6 µM [inhibitor, single point]. With `CCOC(=O)CSc1nc2sc3c(c2c(=O)n1-c1ccc(C)cc1)CCN(C)C3` the Potency was inconclusive: 28.2 µM [inhibitor, partial curve, poor fit]. For `COc1ccc(-c2cc(N3CCCN(C(=O)Cc4ccc(C)cc4)CC3)n[nH]2)cc1`, the Potency was inconclusive: 14.1 µM [inhibitor, partial curve]. For `O=C(c1ccccc1)N1CCNc2cnc(Nc3cccc(F)c3)nc2C1`, the Potency was inconclusive: 35.5 µM [inhibitor, partial curve, poor fit]. `CCC(CC)C(=O)Nc1c(C(=O)N2CCN(c3ccccc3F)CC2)oc2ccccc12` was tested, and the activity change, negative = inhibition was inconclusive: -31.8% [inhibitor]. For `CCOc1cc(CN(C)C(=O)CC2C(=O)NCCN2Cc2ccccc2)ccc1OC` (stereo not given), the Potency was inconclusive: 14.1 µM [inhibitor, partial curve]. For `CC(C)CNC(=O)N1CCCCCCNC(=O)[C@@H]2C[C@@H](c3nc(-c4cccnc4)no3)C[C@@H]21`, the “activity change, negative = inhibition” value was inactive: -4.41%. In the case of `Cn1c(C(=O)N(Cc2ccccc2)Cc2ccccc2)cc2c(=O)n3ccccc3nc21`, the Potency is reported as inconclusive: 2 µM [inhibitor, full curve, poor fit]. `C=C(C)CSc1nnc([C@@H]2CCCN2)o1` was tested, and the Potency was inconclusive: 31.6 µM [inhibitor, single point]. In the case of `CC(C)CN1C(=O)c2cccn2CC1C(=O)N1CCCC1` (stereo not given), the Potency is reported as inconclusive: 28.2 µM [inhibitor, partial curve, poor fit]. With `COc1cccc(CN2CCCCCNC(=O)[C@@H]3CCC[C@@H]32)c1OC` the Potency was inconclusive: 12.6 µM [inhibitor, partial curve, poor fit]. `CCCc1cc(=O)oc2c(C)c(OCC(=O)NCCCn3ccnc3)ccc12` was tested, and the Potency was inconclusive: 20 µM [inhibitor, single point]. `CCCC(O)(c1ccccc1)C(CN1CCOCC1)c1ccccc1` (stereo not given) was tested, and the Potency was inconclusive: 31.6 µM [inhibitor, single point]. `COc1ccc(N2CCN(C(CNS(=O)(=O)c3c(C)cc(C)cc3C)c3ccco3)CC2)cc1` (stereo not given) was tested, and the Potency was inconclusive: 22.4 µM [inhibitor, partial curve, poor fit]. With `Cc1ccn2c(Nc3ccc4c(c3)OCO4)c(-c3ccco3)nc2c1` the Potency was inconclusive: 31.6 µM [inhibitor, partial curve, poor fit]. For `Cc1noc(C)c1-c1cc2cc(CN(C)C)oc2c(Nc2cccnc2)n1`, the Potency was active: 28.2 µM. `Cc1ccc(C(=O)N2CCCC2c2nncn2Cc2ccncc2)c(=O)[nH]1` (stereo not given) was tested, and the Potency was inconclusive: 17.8 µM [inhibitor, partial curve]. `CCN(CC)S(=O)(=O)N1CCCC(c2nncn2C)C1` (stereo not given) was tested, and the “activity change, negative = inhibition” value was inactive: 17.9%. With `C=CCSc1ccccc1NC(=O)c1cc(C)c(C)s1` the Potency was inconclusive: 39.8 µM [inhibitor, single point]. In the case of `CCc1ccc(CN2C[C@@H]3C(=O)N(CCN4CCc5ccccc5C4)C(=O)[C@@H]3C2)cc1`, the Potency is reported as inconclusive: 35.5 µM [inhibitor, single point]. `c1ccc(CCc2noc(CN3CCCCC3CCn3cccn3)n2)cc1` (stereo not given) was tested, and the Potency was inconclusive: 10 µM [inhibitor, partial curve, poor fit]. `CS(=O)(=O)c1ccccc1C(=O)OCc1cccc(F)c1F` was tested, and the “activity change, negative = inhibition” value was inactive: -1.42%. With `CCCn1c2ccccc2c2cnn(CC(=O)N(CCCOC(C)C)Cc3ccco3)c(=O)c21` the Potency was inconclusive: 25.1 µM [inhibitor, partial curve, poor fit]. With `COc1cc(Nc2ncnc3onc(-c4ccc(Cl)cc4)c23)cc(OC)c1` the Potency was inconclusive: 35.5 µM [inhibitor, partial curve, poor fit]. With `Cc1ccccc1OCCN(C)C(=O)c1cc(C2CC2)nc2ccccc12` the “activity change, negative = inhibition” value was inactive: 8.64%. `CCN1CCN(c2nc3c(s2)CN(C(=O)c2ccccn2)CC3)CC1` was tested, and the Potency was inconclusive: 15.8 µM [inhibitor, partial curve, poor fit]. For `COCCn1cnc2c1c(=O)n(CC(=O)Nc1cccc(F)c1)c(=O)n2Cc1ccccc1`, the “activity change, negative = inhibition” value was inactive: 22.2%. For `O=C1NCCN(Cc2ccccc2)C1CC(=O)N1CCN(c2ccccc2)CC1` (stereo not given), the Potency was active: 20 µM. With `O=C(/C=C/Nc1cccc2ccccc12)C(F)(F)F` the Potency was inconclusive: 20 µM [inhibitor, partial curve, poor fit]. With `O=C(NCCc1c[nH]c2ccccc12)Nc1ccccc1C(F)(F)F` the activity change, negative = inhibition was inconclusive: -39.9% [inhibitor]. In the case of `O=C(CSc1nc(C2CC2)nc2ccccc12)NC1CCCC1`, the “activity change, negative = inhibition” value is reported as inactive: -8.27%. `CN1CCOc2c(C(=O)NCc3cccnc3)cc(-c3ccc(O)c(F)c3)cc21` was tested, and the Potency was inconclusive: 39.8 µM [inhibitor, partial curve, poor fit]. For `O=C(NCC(F)(F)F)C1CCCC(C(=O)NCC(F)(F)F)C1` (stereo not given), the Potency was inconclusive: 39.8 µM [inhibitor, single point]. In the case of `Cc1oc(-c2ccc(Cl)cc2)nc1CSc1nnc(C)n2c1cc1sccc12`, the activity change, negative = inhibition is reported as inconclusive: -39.1% [inhibitor]. `COc1ccc2sc(N(Cc3cccnc3)C(=O)c3ccco3)nc2c1` was tested, and the “activity change, negative = inhibition” value was inactive: -12.8%. With `Cc1ccc(C)c(NC(=O)CSc2nncn3c2cc2sccc23)c1` the Potency was inconclusive: 25.1 µM [inhibitor, single point]. With `CCN(CC)C(=O)c1cc(-c2ccccc2Cl)nc2ccccc12` the “activity change, negative = inhibition” value was inactive: 8.52%. For `CCOC(=O)c1ccc(N2C(=O)c3[nH]nc(-c4ccc(OC)cc4)c3C2c2ccc(C)cc2)cc1` (stereo not given), the Potency was inconclusive: 31.6 µM [inhibitor, single point]. `CCOCCCNC(=O)c1ccc(/C=C2\Oc3ccccc3N(C)C2=O)cc1` was tested, and the Potency was inconclusive: 28.2 µM [inhibitor, partial curve, poor fit]. `O=c1n(-c2ccc(F)cc2F)nc2n1CCN(Cc1ccc(C(F)(F)F)cc1)C2` was tested, and the Potency was inconclusive: 31.6 µM [inhibitor, single point]. With `COc1ccc(Cl)cc1-c1ccc2c(c1)C(=O)N1CCN(C(=O)CC(C)(C)C)C[C@@H]1C(=O)N2` the “activity change, negative = inhibition” value was inactive: -11.9%. `S=c1[nH]nc(-c2n[nH]c3c2CCC3)n1/N=C/c1c2ccccc2cc2ccccc12` was tested, and the Potency was inconclusive: 25.1 µM [inhibitor, single point]. In the case of `CC(C)Nc1cc(C(C)(C)C)nc2c(-c3ccccc3)cnn12`, the Potency is reported as inconclusive: 20 µM [inhibitor, partial curve, poor fit]. `COc1cccc(C(=O)N2CCCN(c3cc(-c4ccc(C)c(C)c4)[nH]n3)CC2)c1OC` was tested, and the Potency was inconclusive: 17.8 µM [inhibitor, partial curve, poor fit]. In the case of `CN(C)c1ccc(-c2cc(-c3ccc(=O)[nH]c3)c3cncn3c2)cc1`, the Potency is reported as inconclusive: 28.2 µM [inhibitor, single point]. For `Cc1ccc(S(=O)(=O)c2cn(C)c3cc(N4CCCC4)c(F)cc3c2=O)c(C)c1`, the Potency was inconclusive: 2.82 µM [inhibitor, full curve, poor fit]. `COc1ccc(CN2C(=O)[C@@H]3C[C@@H](CN3Cc3ccccc3C)Oc3ccccc32)cc1` was tested, and the Potency was inconclusive: 35.5 µM [inhibitor, partial curve]. In the case of `NC(=O)NNC(=S)Nc1ccc(Cl)cc1Cl`, the “activity change, negative = inhibition” value is reported as inactive: 17.4%. For `COc1ccccc1-c1nccc2c(=O)cc(N3CCOCC3)oc12`, the Potency was inconclusive: 39.8 µM [inhibitor, partial curve, poor fit]. In the case of `O=C(O)CCC(=O)N1Cc2[nH]cnc2C[C@H]1C(=O)NC1CCCCC1`, the Potency is reported as inconclusive: 39.8 µM [inhibitor, single point]. For `Nc1nc(SCC(=O)NCc2ccc(F)cc2)n[nH]1`, the “activity change, negative = inhibition” value was inactive: 26.2%. For `COc1cccc2cc(-c3nc(Cl)c4c5c(sc4n3)CC(C)CC5)c(=O)oc12` (stereo not given), the Potency was inconclusive: 2 µM [inhibitor, full curve, poor fit]. `O=c1ncn(Cc2ccccc2)c2ccc(-c3ccoc3)nc12` was tested, and the Potency was active: 39.8 µM. For `c1ccc(-c2nc3ccccc3s2)nc1`, the Potency was inconclusive: 14.1 µM [inhibitor, partial curve, poor fit]. For `COc1ccc(-c2nc(CN3CCC(C(=O)NCCN(CC(C)C)CC(C)C)CC3)c(C)o2)cc1OC`, the Potency was inconclusive: 1.12 µM [inhibitor, full curve, poor fit]. With `O=C(NC(c1ccccc1)c1ccccc1)c1n[nH]c(=O)c2ccccc12` the “activity change, negative = inhibition” value was inactive: -0.711%. With `C=CCN(CC=C)Cc1ccc(OCc2ccccc2)c(OC)c1` the “activity change, negative = inhibition” value was inactive: -24.6%. With `Cc1nc2c(c(C)nn2-c2ccccc2)c(C)c1CCC(=O)Nc1ccc(CN2CCCC2)cc1` the Potency was inconclusive: 28.2 µM [inhibitor, partial curve, poor fit]. `CCS(=O)(=O)c1ncc(Cl)c(C(=O)N(Cc2ccccc2)Cc2ccco2)n1` was tested, and the Potency was inconclusive: 22.4 µM [inhibitor, partial curve, poor fit]. For `CCc1ccc(C(=O)NC2CCN(c3ccccc3)C2=O)cc1` (stereo not given), the “activity change, negative = inhibition” value was inactive: -8.94%. In the case of `O=C(CSc1ncc(-c2cccc(Br)c2)o1)NC1CCCCC1`, the “activity change, negative = inhibition” value is reported as inactive: -14.5%. With `Cc1ccc(N2CCN(C(=O)CCc3c(C)nc4ncnn4c3C)CC2)c(C)c1` the Potency was inconclusive: 25.1 µM [inhibitor, partial curve, poor fit]. `CCOc1cc(C(=O)O)ccc1OCc1ccccc1` was tested, and the “activity change, negative = inhibition” value was inactive: 16.1%. With `Cc1cc(C)c(C#N)c(SCC(=O)Nc2ccccc2C#N)n1` the Potency was inconclusive: 35.5 µM [inhibitor, partial curve, poor fit]. In the case of `CCN1c2cc(C(=O)NCc3nc4ccccc4n3C)ccc2C(=O)N2CCCCCC21` (stereo not given), the Potency is reported as inconclusive: 28.2 µM [inhibitor, partial curve, poor fit].
